Test results as given in PubChem BioAssay AID760 (NMMLSC, 2007).
Hit rate of the full screen: of about 190,000 compounds, about 360 (0.19%) were called active. Inconclusive results, whose numbers are uncertain, are shown with a selection of clear calls.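 The calls were made as follows: active = GTP binding activity at least 20 points away from 100%, either lowered or raised; inconclusive = signal likely due to the compound's own green fluorescence; inactive = the rest.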

Target: Ras-related protein Rab-2A (Canis lupus familiaris) (UniProt P61105)
Assay: Rab2 wt fluorescent GTP binding changes, either direction – biochemical, dog, bead-based flow cytometry, multiplex, primary screen (AID 760);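 also: 0% = beads with excess unlabeled GTP and 100% = no-compound control corrected for plate trend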
Conditions: GST-Rab2 wt beads, Bodipy-GTP binding, at 10 µM

SMILES | GTP binding activity
COc1ccc(Cn2nc(-c3ccccc3)c(N3CCCCC3)cc2=O)cc1 | inconclusive: 93%
Clc1ccc(CN(Cc2ccc(Cl)cc2)c2nn[nH]n2)cc1 | inactive: 80%
CC1CC(NS(=O)(=O)c2cccs2)CC(C)(C)C1 (stereo not drawn) | inconclusive: 98%
O=S(=O)(c1ccc2nc(-c3ccco3)c(-c3ccco3)nc2c1)N1CCOCC1 | inconclusive: 91%
COc1ccc(S(=O)(=O)N2CCC(C(=O)N3CCc4ccccc4C3)CC2)cc1C | inconclusive: 89%
O=S(=O)(/C=C/c1ccccc1)N1CCN(Cc2ccc3c(c2)OCO3)CC1 | inconclusive: 89%
COc1cc(OC)c(S(=O)(=O)N2CCCCC2)cc1S(=O)(=O)N1CCCCC1 | inconclusive: 105%
CCOC(=O)c1ccc(NC(=O)c2ccccc2[N+](=O)[O-])cc1 | inactive: 94%
Cc1cc(C)nc(Nc2ncc(O)n2-c2ccc(C)c(C)c2)n1 | inconclusive: 98%
CCOc1cc(/C=C2/NC(=O)N(CC(=O)Nc3cccc(C)c3)C2=O)ccc1OCC(N)=O | inconclusive: 93%
COc1cc2[nH]c(=S)nc(NC3CCCCCC3)c2cc1OC | active: 69%
COc1ccc(CCNc2c([N+](=O)[O-])c(=O)oc3ccccc23)cc1OC | inconclusive: 108%
CCSc1nnc(NC(=O)[C@@H](NC(=O)c2ccccc2F)C(C)C)s1 | inconclusive: 180%
COc1cc(CC(=O)OCC(=O)Nc2cccc([N+](=O)[O-])c2)cc(OC)c1OC | inactive: 97%
COc1ccc(C(=O)c2nccc3ccccc23)cc1 | inactive: 95%
CC(=O)Nc1ccc(NC(=O)COC(=O)c2ccco2)cc1 | inconclusive: 90%
O=C(Nc1cccc(Cl)c1N1CCCC1)c1ccc(Br)o1 | inconclusive: 102%
O=C(/C=C/c1ccccc1)NC(NC(=S)Nc1ccc(C(=O)O)cc1)C(Cl)(Cl)Cl (stereo not drawn) | active: 79%
COc1ccc(CNC(=O)CN(C)S(=O)(=O)c2ccc(Cl)cc2)cc1 | inconclusive: 95%
COCCNC(=O)/C(C#N)=C/C=C/c1ccccc1[N+](=O)[O-] | inconclusive: 96%

SMILES | GTP binding activity
CC(=O)c1cc2c(cc1NC(=O)c1cccc(S(=O)(=O)N3CCN(C)CC3)c1)OCO2 | inactive: 82%
O=c1nc2c(O)cccn2c2c1c(=O)[nH]c1ccccc12 | active: 62%
CCc1c(O)nc(SCC(N)=O)n(-c2ccccc2F)c1=O | inconclusive: 107%
O=C1CC(c2ccc(F)cc2)Sc2ccccc2N1 (stereo not drawn) | inactive: 106%
CCOc1ccccc1NC(=O)c1cc(Cl)ccc1NC(=O)c1ccco1 | inconclusive: 102%
COc1ccc(CC(=O)Nc2cc(=O)n(C)c(=O)n2C)cc1 | inconclusive: 106%
COc1ccc(CN(C)C2CCCCC2)c(C)c1C | inconclusive: 104%
Cc1cc(=O)[nH]c2c(N=Nc3ccc(O)cc3)c(N)nn12 | active: 64%
O=C(NCC1OCCc2ccccc21)c1cc(COc2c(F)cccc2F)on1 (stereo not drawn) | inconclusive: 94%
COc1ccc(/C=N/OCC(=O)N=Nc2c(O)[nH]c3ccc(Br)cc23)cc1OC | inconclusive: 96%
COc1cc(N2CCOCC2)ncn1 | inconclusive: 107%
Cc1nn(CC(=O)Nc2cc(S(=O)(=O)N(C)C)ccc2Cl)c(C)c1[N+](=O)[O-] | inconclusive: 101%
c1ccc(CN2CCN(CCOCCOc3cccc4ccccc34)CC2)cc1 | active: 78%
Cc1ccc(S(=O)(=O)N2CCCCC2)cc1NC(=O)CSc1nnc(N)s1 | inconclusive: 97%
CCC(C)(C)NC(=O)CN(Cc1cccs1)C(=O)CCC(=O)Nc1nccs1 | inconclusive: 103%
CC1=C(C(=O)Nc2ccc(F)c(F)c2)C(c2cccs2)NC(=S)N1 (stereo not drawn) | inactive: 100%
Cc1nc(N2CCN(c3ccccn3)CC2)c2c(C)c(C(=O)Nc3ccc(F)cc3F)sc2n1 | inconclusive: 86%
Cc1ccnc(NC(=O)CCCOc2ccccc2)c1 | inactive: 97%
Cc1ccc(-c2nnc3c4ccccc4c(C)nn23)cc1S(=O)(=O)N1CCN(CCO)CC1 | active: 79%
COc1ccc(/C=N/Nc2cc(C)nc(-n3nc(C)cc3C)n2)c(OC)c1 | inconclusive: 77%

SMILES | GTP binding activity
CCN(CC)S(=O)(=O)c1cccc(NC(=O)c2ccc(C#N)cc2)c1 | inactive: 95%
CCOC(=O)N1CCC2(CC1)C(C#N)=C(N)Oc1c2c(C)nn1-c1cccc(Cl)c1 | inconclusive: 90%
CCOc1ccc(NC(=O)c2cc3c(=O)n(C)c4ccccc4c3n2C)cc1 | inactive: 101%
Cc1nc2sc(C(c3ccc(Cl)cc3)N3CCN(C(=O)c4ccco4)CC3)c(O)n2n1 (stereo not drawn) | inconclusive: 103%
O=C(O)/C=C\C(=O)Nc1cccc(C(=O)Nc2cccc(O)c2)c1 | inactive: 83%
CCOc1ccc(C(=O)NCc2ccco2)cc1 | inconclusive: 103%
COc1cc(/C=C/C(=O)OCC(=O)NC(=O)NC23CC4CC(CC(C4)C2)C3)ccc1OCC#N | inactive: 97%
COc1cccc(OCCNC(=O)c2cc([N+](=O)[O-])cc([N+](=O)[O-])c2)c1 | inconclusive: 89%
C=CCNc1cnn(CC(C)=O)c(=O)c1Br | inconclusive: 105%
Cc1cccc(/C=N/N(CCO)C2=NS(=O)(=O)c3ccccc32)c1 | inactive: 81%
CC(C)Cn1c(N)c(C(=O)COC(=O)c2ccc3c(c2)OCCO3)c(=O)n(C)c1=O | inconclusive: 90%
Cn1c(=O)oc2cc(S(=O)(=O)NCCC(=O)NCCc3ccccc3)ccc21 | inconclusive: 103%
c1ccc(-n2c(SCC3CCCCO3)nnc2-c2cnccn2)cc1 (stereo not drawn) | inconclusive: 89%
CCOC(=O)c1sc(NC(=O)c2cc3ccccc3o2)nc1C | inconclusive: 94%
Cc1cc(C)n(CCNc2nc3nonc3nc2N2CCCCC2)n1 | inactive: 96%
CCn1c(SCC(=O)N/N=C/c2ccc(C)o2)nnc1-c1ccc(C(C)(C)C)cc1 | inconclusive: 101%
O=C(CN1CCN(C(=O)c2cccc(F)c2)CC1)NC1CCCCC1 | inactive: 94%
CCOC(=O)N1CCC(N2Cc3cccc(C(=O)Nc4ccc(OC)c(OC)c4)c3C2=O)CC1 | inconclusive: 85%
